Source: PubChem BioAssay AID759 (NMMLSC, 2007)
The whole screen tested about 190,000 compounds, of which about 270 (0.14%) were called active. Inconclusive results, whose numbers are uncertain, are shown with a selection of clear calls.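 How the source made its calls: active means GTP binding activity at least 20% away from the 100% baseline, either lowered as inhibitor or raised as activator; inconclusive means flagged as likely green fluorescent, judged across all proteins in the well; inactive means the rest.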

These molecules were tested against GTPase HRas (Homo sapiens) (UniProt P01112) (assay: HRas wt fluorescent GTP binding changes, either direction – biochemical, wildtype, bead-based flow cytometry, multiplex, primary screen (AID 759;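 further: 0% = unlabeled GTP competition control and 100% = no-compound control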)). Settings: GST-Ras wt beads, Bodipy-FL-GTP binding, at 10 µM, actives lie on both sides.
Sequence of UniProt P01112 (P01112 whole entry, looked up): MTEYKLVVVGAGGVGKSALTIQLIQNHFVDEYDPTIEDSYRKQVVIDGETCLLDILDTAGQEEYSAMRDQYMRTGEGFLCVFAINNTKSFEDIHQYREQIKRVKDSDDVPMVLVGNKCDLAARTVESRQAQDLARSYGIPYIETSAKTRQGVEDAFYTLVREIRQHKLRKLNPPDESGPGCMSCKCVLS
For Cc1cccc(Nc2nc(NCc3ccco3)nc(N3CCOCC3)n2)c1, the GTP binding activity was inactive: 104%. In the case of O=C(/C=N/O)NCc1ccncc1, the GTP binding activity is reported as inactive: 102%. COC(=O)c1c(C)nc(C)c(C(=O)OC)c1-c1cccs1 was tested, and the GTP binding activity was inconclusive: 132%. COc1ccc(CNc2nc3c(c(=O)n(Cc4ccc(Cl)cc4)c(=O)n3C)n2C)cc1 was tested, and the GTP binding activity was inactive: 82%. With Cc1c(NC(=O)c2nn3c(c2Br)NC(c2ccccc2)CC3C(F)(F)F)c(=O)n(-c2ccccc2)n1C (stereo unspecified) the GTP binding activity was inactive: 100%. With COc1ccc(C(=O)N[C@H](C(=O)OCc2cc(=O)oc3cc(C)ccc23)C(C)C)cc1 the GTP binding activity was active: 37%. In the case of CC(C)c1ccc(NC(=O)N2CCCC2C(=O)Nc2ccc(-n3cnnn3)cc2)cc1 (stereo unspecified), the GTP binding activity is reported as inactive: 92%. For Cc1cc(N2CCN(c3ccccn3)CC2)n2c(nc3ccccc32)c1C#N, the GTP binding activity was inconclusive: 86%. CCc1sc(C(=O)NCc2ccccc2)cc1C was tested, and the GTP binding activity was inconclusive: 93%. In the case of CCN(CC)S(=O)(=O)c1ccc(C(=O)Nc2nnc(C(C)C)s2)cc1, the GTP binding activity is reported as inconclusive: 102%. In the case of CCCC(=O)N(c1ccc(OC)cc1)C1C=CS(=O)(=O)C1 (stereo unspecified), the GTP binding activity is reported as inconclusive: 105%. In the case of COC(=O)C1CCCN1C(=O)COc1ccc(Cl)cc1Br (stereo unspecified), the GTP binding activity is reported as inactive: 99%. With COc1cccc(=O)c2c(C)n(-c3cc(C)cc(C)c3)c(C)c12 the GTP binding activity was inconclusive: 106%. With Cc1cccc(C)c1NC(=O)CNCC(=O)N(C)C the GTP binding activity was inactive: 100%. With N#Cc1cc2ccc(N3CCOCC3)cc2cc1C#N the GTP binding activity was inconclusive: 104%. With Cn1c(SCC(=O)Nc2cc(C(C)(C)C)nn2-c2ccccc2)nc2ccccc21 the GTP binding activity was inconclusive: 188%. For C=CCc1cccc(CNc2c(C)cc(C)cc2C)c1O, the GTP binding activity was inactive: 97%. In the case of Cn1c(NC(=O)Cc2cccc3ccccc23)cc(=O)n(C)c1=O, the GTP binding activity is reported as inconclusive: 90%. O=C(COC(=O)/C=C/c1cccc(Cl)c1)NCCC1=CCCCC1 was tested, and the GTP binding activity was inconclusive: 92%. With O=C(CNC(=O)c1cccs1)OCC(=O)c1ccc(Br)cc1 the GTP binding activity was inconclusive: 93%. COc1cc(C(=O)Nc2nc(-c3cccs3)cs2)cc(OC)c1OC was tested, and the GTP binding activity was inconclusive: 96%. With Cc1nc2c(-c3ccc(Cl)cc3)c(C)[nH]n2c(=O)c1Cc1ccccc1 the GTP binding activity was inconclusive: 79%. COc1ccc(Br)cc1/C=N/NC(=O)c1cccc(S(=O)(=O)N2CCOCC2)c1 was tested, and the GTP binding activity was inconclusive: 93%. In the case of CN(C(=O)COC(=O)c1cc(NS(=O)(=O)c2cc([N+](=O)[O-])ccc2Cl)ccc1O)C1CCCCC1, the GTP binding activity is reported as inactive: 96%. With CCCNS(=O)(=O)/C=C/c1ccccc1 the GTP binding activity was inconclusive: 97%. For O=C(O)c1cn(C2CC2)c2cc(N3CCN(S(=O)(=O)c4ccc5c(c4)OCCO5)CC3)c(F)cc2c1=O, the GTP binding activity was inactive: 94%. Cc1cccc(NC(=O)NC(=O)c2ccccc2)n1 was tested, and the GTP binding activity was inconclusive: 95%. With COc1cc(C(=O)NCc2nnc(SCC(=O)N3CCCCC3)o2)cc(OC)c1OC the GTP binding activity was inconclusive: 102%. Brc1ccc(/C=N/Nc2ccc3ccccc3n2)cc1 was tested, and the GTP binding activity was inconclusive: 91%. With Fc1ccc(NC(=S)Nc2ccccc2N2CCOCC2)cc1Cl the GTP binding activity was inactive: 97%. O=C(NC1(C(F)(F)F)NC(=O)N(Cc2cccnc2)C1=O)c1cccs1 (stereo unspecified) was tested, and the GTP binding activity was inconclusive: 109%. For O=c1c2ccccc2nc2c3ccccc3c(NCCN3CCOCC3)nn12, the GTP binding activity was inconclusive: 78%. For Cc1cccc(Cc2c(C)nc3nc(SCC(=O)O)nn3c2C)c1, the GTP binding activity was active: 78%. For CCn1c(COc2cccc(C)c2)nnc1SCC(=O)N1CCCC1, the GTP binding activity was inconclusive: 103%. Cc1cc(NC(=O)C2=C(O)c3ccccc3S(=O)(=O)N2C)no1 was tested, and the GTP binding activity was inactive: 99%. In the case of COC(=O)c1cccc(Nc2cc(C)nc(-c3ccccc3O)n2)c1, the GTP binding activity is reported as inconclusive: 78%. In the case of O=C(O)CCc1ccc(-c2ccccc2)n1NC(=O)c1ccco1, the GTP binding activity is reported as inconclusive: 105%. With NC(=O)c1nnsc1Sc1c(C(N)=O)nnn1-c1cccc(N)c1 the GTP binding activity was inactive: 96%. In the case of CCN(CC)c1ccc(/C=N/OCC(=O)Nc2cccc(C)c2)cc1, the GTP binding activity is reported as inconclusive: 127%. In the case of Cc1cc(N2CCCC2=O)cc(C)c1S(N)(=O)=O, the GTP binding activity is reported as inconclusive: 101%. For COc1cccc(N2CCN(C(=O)c3cccn4c(=O)c5c(C)c(C)sc5nc34)CC2)c1, the GTP binding activity was inconclusive: 81%. For CCc1ccc(NC(=O)Cn2c3[n+](c4c(F)c(F)ccc42)CCCCC3)cc1, the GTP binding activity was inactive: 100%. For Cc1ccc(C(=O)c2ccccc2C(=O)OCC(=O)NC(C)(C)C)cc1, the GTP binding activity was inactive: 97%. O=C(CNC(=O)c1ccco1)OCC(=O)c1ccc(Cl)cc1Cl was tested, and the GTP binding activity was inconclusive: 97%. With CC(C)N1CCN(CC#Cc2ccccc2)CC1CCO (stereo unspecified) the GTP binding activity was inactive: 101%. In the case of CCCCN1C2=NCCCN2c2cc(C)c(C)cc21, the GTP binding activity is reported as inconclusive: 102%. For Cc1cc(S(=O)(=O)n2ccnc2)c(Cl)cc1Cl, the GTP binding activity was inactive: 95%. For CCOC(=O)C1=NOC2C(=O)N(c3ccc(Cl)cc3Cl)C(=O)C12 (stereo unspecified), the GTP binding activity was inconclusive: 94%. With CCS(=O)(=O)Nc1cccc(-c2ccc3nnc(C)n3n2)c1 the GTP binding activity was inconclusive: 95%. With O=C(CNC1CCCCCC1)Nc1ccccc1N1CCOCC1 the GTP binding activity was inactive: 100%. In the case of NC(=O)C1(N2CCCCC2)CCN(C(=S)Nc2cc(F)cc(F)c2)CC1, the GTP binding activity is reported as inactive: 96%. With CCc1ccc(C(=O)COC(=O)c2cnc(C)cn2)cc1 the GTP binding activity was inconclusive: 94%. With CCCCn1nc2cc(C(=O)NCc3ccc(OC(F)(F)F)cc3)ccc2c1OC the GTP binding activity was inconclusive: 108%. In the case of CC(C)C(=O)Nc1ccc(NC(=S)NC(=O)c2cc3ccccc3o2)cc1, the GTP binding activity is reported as inconclusive: 97%. For COc1ccc2c(c1)c1ncn(Cc3ccco3)c(=O)c1n2C, the GTP binding activity was inconclusive: 93%. With CCC(=O)NC(C)c1nc2ccccc2n1C (stereo unspecified) the GTP binding activity was inconclusive: 102%. For FC(F)(F)c1cc(-c2ccc(Cl)cc2)nc2ncnn12, the GTP binding activity was inconclusive: 106%. In the case of c1ccc(C(c2ccccc2)N2CCN(c3nc4ccccc4n4cnnc34)CC2)cc1, the GTP binding activity is reported as inconclusive: 94%. In the case of CN1CCN(C(=O)CC2(CC(=O)O)CCCC2)CC1, the GTP binding activity is reported as inactive: 100%. In the case of CC(C)(C)NC(=O)Cn1nnc(-c2ccccc2Cl)n1, the GTP binding activity is reported as inconclusive: 101%. For O=C(C#Cc1ccccc1)c1ccc([N+](=O)[O-])cc1, the GTP binding activity was inactive: 86%.
